Consider 153 variants from a collection of fitness landscapes (doi:10.1126/science.1257360).

This is one part of the list.

First the molecules themselves.
B1: PhoQ; a variant is named by its letters at X, in order, P23837 (parent)
chain: MKKLLRLFFPLSLRVRFLLATAAVVLVLSLAYGMVALIGYSVSFDKTTFRLLRGESNLFYTLAKWENNKLHVELPENIDKQSPTMTLIYDENGQLLWAQRDVPWLMKMIQPDWLKSNGFHEIEADVNDTSLLLSGDHSIQQQLQEVREDDDDAEMTHSVAVNVYPATSRMPKLTIVVVDTIPVELKSSYMVWSWFIYVLSANLLLVIPLLWVAAWWSLRPIEALAKEVRELEEHNRELLNPATTRELTSLVRNLNRLLKSERERYDKYRTTLTDLTHSLKTPLXXLQXXLRSLRSEKMSVSDAEPVMLEQISRISQQIGYYLHRASMRGGTLLSRELHPVAPLLDNLTSALNKVYQRKGVNISLDISPEISFVGEQNDFVEVMGNVLDNACKYCLEFVEISARQTDEHLYIVVEDDGPGIPLSKREVIFDRGQRVDTLRPGQGVGLAVAREITEQYEGKIVAGESMLGGARMEVIFGRQHSAPKDE

In the test the parent is B1. The test can be described thus: enrichment ratio after two sorts for PhoP signalling (ratio (wild type AVST 3.29)); higher = more functional. Conditions: with PhoP (E. coli).
For the variant LSDA, the enrichment ratio is not above 0.25.

Consider TNIK, for which the enrichment ratio was not above 0.25.

Turning to DGNS, the enrichment ratio was not above 0.25. Take FHSK: the enrichment ratio is not above 0.25. The same measure for TAPC: not above 0.25; for FHGF: 1.06; for HGAC: not above 0.25. IWNY: the enrichment ratio was not above 0.25. The same measure for NSAM: not above 0.25; for RQKA: not above 0.25. Regarding QSMH, the enrichment ratio is not above 0.25. Under NSPM stands not above 0.25. Under HHYD stands not above 0.25; under HLTR, not above 0.25.

In the case of DRYC, the enrichment ratio is not above 0.25.

As for RSCC, the enrichment ratio was not above 0.25. Under NNHK stands not above 0.25. The same measure for DDYM: not above 0.25; for SMSM: 12.4; for YQAP: not above 0.25. The same measure for QLPH: not above 0.25. Consider IQVT, for which the enrichment ratio is not above 0.25.

In the case of NCAT, the enrichment ratio was not above 0.25. Under SLSG stands 11.8; under DQGF, not above 0.25. The same measure for RRRR: not above 0.25; for MPFV: not above 0.25.

For the variant MDRY, the enrichment ratio was not above 0.25. Under KQSY stands not above 0.25; under EYNL, not above 0.25. For the variant AYNK, the enrichment ratio is not above 0.25. The same measure for RFIL: 1.24; for HQTH: not above 0.25. Under SYFY stands not above 0.25; under RNAE, not above 0.25; under IQAK, not above 0.25. Under TICT stands 7.58. Turning to RGVL, the enrichment ratio was not above 0.25.

As to NKKC, the enrichment ratio was not above 0.25. For the variant SFSR, the enrichment ratio is not above 0.25. As for WASM, the enrichment ratio is not above 0.25. Under YTSN stands not above 0.25; under ITFP, not above 0.25. As for YQIG, the enrichment ratio was not above 0.25. Take KEEG: the enrichment ratio is not above 0.25. The same measure for RRSV: not above 0.25. The same measure for HKCT: not above 0.25; for ANWY: not above 0.25; for PALE: not above 0.25. Under MVRC stands not above 0.25; under RRRN, not above 0.25; under AATW, not above 0.25. Consider AEKV, for which the enrichment ratio is not above 0.25.

For the variant EALS, the enrichment ratio is not above 0.25.

SSIS: the enrichment ratio came to 11.9. Under LKHN stands not above 0.25; under PNPP, not above 0.25.

Turning to HPSD, the enrichment ratio was 0.266. The same measure for GNRQ: not above 0.25. The same measure for FVGP: not above 0.25; for NMLL: not above 0.25. With FWGN, the enrichment ratio is not above 0.25.

Consider KQVR, for which the enrichment ratio was not above 0.25.

As to ELRQ, the enrichment ratio was not above 0.25. The same measure for NPHD: not above 0.25.

With RIRK, the enrichment ratio was not above 0.25. Under KDFN stands not above 0.25. The same measure for LRCE: not above 0.25. The same measure for NWGN: not above 0.25; for FVER: not above 0.25; for VIAY: not above 0.25. PGHV: the enrichment ratio is not above 0.25. The same measure for KCGV: not above 0.25; for NLFY: not above 0.25; for NDCP: not above 0.25.

Consider QILD, for which the enrichment ratio is not above 0.25. Under TGQR stands not above 0.25. On to PERF, for which the enrichment ratio is not above 0.25. Turning to YPMQ, the enrichment ratio is not above 0.25. For KMLR, the enrichment ratio is not above 0.25. As to LFHI, the enrichment ratio was not above 0.25. With EQSR, the enrichment ratio was not above 0.25.

Turning to LEAC, the enrichment ratio was not above 0.25. Under GIVY stands not above 0.25; under CQSG, not above 0.25. The same measure for HPAA: not above 0.25; for KREG: not above 0.25. Under YHMI stands not above 0.25; under LQPH, not above 0.25. On to PCIQ, for which the enrichment ratio was not above 0.25. The same measure for ATFH: not above 0.25.

As to RWLP, the enrichment ratio was not above 0.25. Under LMLL stands not above 0.25; under DWWG, not above 0.25; under AMGM, 0.276.

GIFN: the enrichment ratio was not above 0.25. Consider WSQY, for which the enrichment ratio is not above 0.25.

In the case of VYEY, the enrichment ratio is not above 0.25. The same measure for ENAC: not above 0.25; for GLNC: not above 0.25.

Take LCTD: the enrichment ratio is not above 0.25. The same measure for QYYG: not above 0.25. With DTTD, the enrichment ratio was not above 0.25.

On to IIYD, for which the enrichment ratio was not above 0.25. For the variant FIHF, the enrichment ratio is not above 0.25. Regarding TLTG, the enrichment ratio is 4.13. The same measure for VILA: not above 0.25; for SVAL: 10.4.

Turning to YTFW, the enrichment ratio is not above 0.25. Under SCNC stands not above 0.25; under RHFC, not above 0.25. With TFIY, the enrichment ratio is not above 0.25. As for FGIN, the enrichment ratio was not above 0.25. For EYRR, the enrichment ratio was not above 0.25. The same measure for LYIN: not above 0.25; for TWID: not above 0.25. On to DEHS, for which the enrichment ratio was not above 0.25. Under THGA stands not above 0.25.

For the variant DFCD, the enrichment ratio was not above 0.25. As to LINY, the enrichment ratio was not above 0.25.

For TTMV, the enrichment ratio was 28.9. Turning to NKPY, the enrichment ratio was not above 0.25. The same measure for QEID: not above 0.25; for VGEG: not above 0.25. Turning to IAIE, the enrichment ratio was not above 0.25.

Turning to SFNA, the enrichment ratio is not above 0.25. The same measure for VRNI: not above 0.25; for PIEV: not above 0.25; for VATQ: not above 0.25. The same measure for FVQN: not above 0.25; for INPW: not above 0.25; for YAKI: not above 0.25. With FYAA, the enrichment ratio was not above 0.25. The same measure for HICP: not above 0.25; for YYIW: not above 0.25. Regarding TVFA, the enrichment ratio was not above 0.25.

In the case of HAAP, the enrichment ratio is not above 0.25. Under NLQV stands not above 0.25; under SCWQ, not above 0.25; under SPHH, not above 0.25. The same measure for WPNF: not above 0.25; for QEGM: 10.1; for CWTL: not above 0.25. The same measure for MPHI: not above 0.25; for TGVK: not above 0.25; for PSWV: not above 0.25. For KQMN, the enrichment ratio is not above 0.25. Under IYRY stands not above 0.25; under TNVG, not above 0.25. The same measure for SNRQ: not above 0.25; for MNLG: 3.31.

With IELG, the enrichment ratio came to 7.08. Under GHRQ stands not above 0.25.
